According to the RNAGym collection of RNA variant scans (doi:10.1073/pnas.2313332121):
This sample is rich in variants without activity.

B1: TPR 5TU (parent)
chain: GGAUCUUCUCGAUCUAACAAAAAAGACAAAUCUGCCACAAAGCUUGAGAGCAUCUUCGGAUGCAGAGGCGGCAGCCUUCGGUGGCGCGAUAGCGCCAACGUUCUCAACUAUGACACGCAAAACGCGUGCUCCGUUGAAUGGAGUUUAUCAUG

Variants of: B1
Test: polymerase ribozyme fitness, log enrichment relative to wild type (log ratio); higher = more active; in vitro selection for triplet polymerase activity
Method in brief: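 PCR was used to build mutant libraries for each subunit of a heterodimeric triplet polymerase ribozyme, which were then transcribed. A single in vitro selection round, in triplicate, used a frozen incubation at −7 °C and recovered extended constructs by gel excision, streptavidin beads and RT-PCR. Fitness is the logarithm of genotype enrichment relative to wild-type enrichment, averaged over replicates with inverse-variance weights. The logarithm is base 2, and after Illumina sequencing only genotypes with ≥10 input reads and ≥1 read per output were kept.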

Row | Variant | polymerase ribozyme fitness (log ratio)
1 | A24U C36U G65C C85U C87G C96G | ≤ -4.2
2 | A24U C38A G50U U55A U61G G68C G84U G141A U151G | ≤ -4.2
3 | A24U C38G C57G G83C A91U C105A C149A | ≤ -4.2
4 | A24U C38G G100C G140U | ≤ -4.2
5 | A24U C38U A39C G81U C85U U135G | ≤ -4.2
6 | A24U C43U A49C U82G C85U U90C A97C U135G U139C G140U | ≤ -4.2
7 | A24U C43U C51U C57A C85U C129G | ≤ -4.2
8 | A24U C51A A64G U102C C116A | ≤ -4.2
9 | A24U C51A C76A A115C U139A | ≤ -4.2
10 | A24U C51A U56A G71U G88C U102C | ≤ -4.2
11 | A24U C51G C76G G92A U145A C149G | ≤ -4.2
12 | A24U C51G U55A G59C | -2.27
13 | A24U C51U C57A C63U C93A A107C C125A | ≤ -4.2
14 | A24U C51U C79A G94A G141U | ≤ -4.2
15 | A24U C54A G58A G84A A120G G126U | -1.19
16 | A24U C54G G59C G71U U77C C129G U144G | ≤ -4.2
17 | A24U C57A A89U C95U C118U G143U | ≤ -4.2
18 | A24U C72A C85G C87U A137G | ≤ -4.2
19 | A24U C72U G84U C118U A142G | -3.98
20 | A24U C75A A106C | ≤ -4.2
21 | A24U C79U U102G C118U A119G G140A | ≤ -4.2

Row | Variant | polymerase ribozyme fitness (log ratio)
22 | A24U C85G C96U C114U G141C | ≤ -4.2
23 | A24U C87A G88A | ≤ -4.2
24 | A24U C87U U109G U139A U148A U151G | ≤ -4.2
25 | A24U C93A C132A | ≤ -4.2
26 | A24U C93A G112A C114U C116G A119G | ≤ -4.2
27 | A24U C93U C118U A121G | -1.37
28 | A24U C99G U135G G141U U148A | ≤ -4.2
29 | A24U C99U | -1.46
30 | A24U C131U | 2.4
31 | A24U C149G | -3.88
32 | A24U G25C A49C G81C A91G A98U | ≤ -4.2
33 | A24U G25U A28U G34U | ≤ -4.2
34 | A24U G25U C43U U77A G84A U101A C116G U145G | ≤ -4.2
35 | A24U G25U G88A G133C | ≤ -4.2
36 | A24U G34C C79G C87U A137U | ≤ -4.2
37 | A24U G42C G50U C85G G136A G141A | ≤ -4.2
38 | A24U G42C G84A C93U G94C C99A A122G | ≤ -4.2
39 | A24U G46C A73G C87U G92C | -3.37
40 | A24U G46C G83U G84C C95G A97G A122U G140C | ≤ -4.2
41 | A24U G48A U53A A106C | ≤ -4.2
42 | A24U G48A U55A G70A C87A C114U G152U | ≤ -4.2

Row | Variant | polymerase ribozyme fitness (log ratio)
43 | A24U G50C C57A A73G G128U | ≤ -4.2
44 | A24U G50U U56G G58U C76U A122G | -4.1
45 | A24U G58C G62C A115C G140U | ≤ -4.2
46 | A24U G58U A106U U139C U145G | ≤ -4.2
47 | A24U G58U G70C G141U A147C | ≤ -4.2
48 | A24U G59A C93G G94A U104G A106U C118U | ≤ -4.2
49 | A24U G59U C87U G128A G140U U151C | ≤ -4.2
50 | A24U G68U G81A U102A C118G A120C A137G G143A | ≤ -4.2
51 | A24U G74C | -4.19
52 | A24U G80C U90A A115G G140U U145G | ≤ -4.2
53 | A24U G80U | -0.195
54 | A24U G80U A138G | ≤ -4.2
55 | A24U G84A C87U A97U A120C G143A U144G | ≤ -4.2
56 | A24U G84A G94U C96A A121U G126U U135A | -4.1
57 | A24U G86C | -2.81
58 | A24U G92U | 0.213
59 | A24U G136U | -2.44
60 | A24U U31G A41C G140U U151G | ≤ -4.2
61 | A24U U31G A52C G65A G84C C87U A119G | ≤ -4.2
62 | A24U U31G G92U A107C U144A | ≤ -4.2
63 | A24U U33A C95U | ≤ -4.2

Row | Variant | polymerase ribozyme fitness (log ratio)
64 | A24U U33C A47U C93G | ≤ -4.2
65 | A24U U33C C93A C116G A137C | ≤ -4.2
66 | A24U U44A G71A U90C G117U C118U U134C G136A | ≤ -4.2
67 | A24U U44C G84U G143A | ≤ -4.2
68 | A24U U45G G68C U77A C87U C96A G124U | ≤ -4.2
69 | A24U U45G G86A | -2.58
70 | A24U U53A G58C U61A A91G C149U | ≤ -4.2
71 | A24U U53A U56G C57U A91U | ≤ -4.2
72 | A24U U55A A91U C105U | ≤ -4.2
73 | A24U U55A C76G C79G A142C | ≤ -4.2
74 | A24U U55A C85A A115U G133U | ≤ -4.2
75 | A24U U55A G58A A60G A64G C93G U101G C123A | ≤ -4.2
76 | A24U U56A C87G A106C U135G A142U | ≤ -4.2
77 | A24U U56A G62C | -1.06
78 | A24U U61A C76A A98G C108G | ≤ -4.2
79 | A24U U77A G92A C125G | ≤ -4.2
80 | A24U U82A C96G | 0.476
81 | G25A A26C G84A A106G C123A C132G | ≤ -4.2
82 | G25A A26G G50C C57U U61A C95U U130G U135A | ≤ -4.2
83 | G25A A26G G84A C96G A113C | ≤ -4.2
84 | G25A A28U A41U A66U G83U U111G C118U | ≤ -4.2
